Values joined by “and” are separate entries in the source; they are usually repeats but may differ in a detail not shown here. Equal entries are not always repeated. The source gives many values for each of these; only a part stands here.
Assay: PK of compound of Formula (Ia) after single subcutaneous dose of solution formulations in Wistar Han rats
Type: in vivo
Conditions: Wistar Han rats, SC 50 mg/kg
Protocol: Formulations containing the compound of Formula (Ia), or a pharmaceutically acceptable salt thereof, were prepared as solutions and optionally administered subcutaneously or intramuscularly to rats, rabbits, and/or dogs.
A solution of about 400 mg/mL of the compound of Formula (Ia) having 19.14 w/w % water, 40.66 w/w % PEG 300, 35.20 w/w % of a sodium salt of a compound of Formula (Ia), and 5.00% ethanol was prepared. The solution was administered subcutaneously to male Wistar Han rats at a dose level of about 50 mg/kg and dose volume of 0.125 mL/kg and the pharmacokinetic (PK) profile was determined.
A solution of about 500 mg/mL of the compound of Formula (Ia) having 16.64 w/w % water, 35.36 w/w % PEG 300, 43.00 w/w % of a sodium salt of a compound of Formula (Ia), and 5.00% ethanol was prepared. The solution was administered subcutaneously to male Wistar Han rats at a dose level of about 50 mg/kg and dose volume of 0.1 mL/kg and the pharmacokinetic (PK) profile was determined.
A solution of about 400 mg/mL of the compound of Formula (Ia) having 17.00 w/w % water, 36.40 w/w % PEG 300, 35.20 w/w % of a sodium salt of a compound of Formula (Ia), 5.00 w/w % ethanol, and 6.40 w/w % poloxamer 188 was prepared. The solution was administered subcutaneously to male beagle dogs at a dose level of about 12 mg/kg and male Wistar Han rats at a dose level of about 50 mg/kg. The pharmacokinetic profiles were determined, and the results for dogs are summarized in Table and Table, while the results for rats are summarized in Table and Table below.
A solution of about 500 mg/mL of the compound of Formula (Ia) having 14.06 w/w % water, 30.12 w/w % PEG 300, […] of a sodium salt of a compound of Formula (Ia), 5.00 w/w % ethanol, and 6.40 w/w % poloxamer 188 was prepared. The solution was administered subcutaneously to male beagle dogs at a dose level of about 12 mg/kg and male Wistar Han rats at a dose level of about 50 mg/kg. The pharmacokinetic profiles were determined, and the results for dogs are summarized in Table and Table, while the results for rats are summarized in Table and Table below.
A solution of about 300 mg/mL of the compound of Formula (Ia) having 23.33 w/w % water, 48.99 w/w % PEG 300, 26.47 w/w % of a sodium salt of a compound of Formula (Ia), and 1.21 w/w % poloxamer 188 was prepared. The solution was administered subcutaneously to male beagle dogs at a dose level of about 6 mg/kg and male Wistar Han rats at a dose level of about 50 mg/kg. The pharmacokinetic profiles were determined, and the results for dogs are summarized in Table and Table, while the results for rats are summarized in Table and Table below.
A solution of about 400 mg/mL of the compound of Formula (Ia) having 18.80 w/w % water, 40.25 w/w % PEG 300, 34.38 w/w % of a sodium salt of a compound of Formula (Ia), 5.00 w/w % ethanol, and 1.57 w/w % poloxamer 188 was prepared. The solution was administered subcutaneously to male beagle dogs at a dose level of about 12 mg/kg and male Wistar Han rats at a dose level of about 50 mg/kg. The pharmacokinetic profiles were determined, and the results for dogs are summarized in Table and Table, while the results for rats are summarized in Table and Table below.
A solution of about 500 mg/mL of the compound of Formula (Ia) having 16.29 w/w % water, 34.88 w/w % PEG 300, 41.92 w/w % of a sodium salt of a compound of Formula (Ia), 5.00 w/w % ethanol, and 1.91 w/w % poloxamer 188 was prepared. The solution was administered subcutaneously to male beagle dogs at a dose level of about 12 mg/kg and male Wistar Han rats at a dose level of about 50 mg/kg. The pharmacokinetic profiles were determined, and the results for dogs are summarized in Table and Table, while the results for rats are summarized in Table and Table below.
A solution of about 400 mg/mL of the compound of Formula (Ia) having 20.90 w/w % water, 44.72 w/w % PEG 300, and 34.38 w/w % of a sodium salt of a compound of Formula (Ia) was prepared. […]

For `CC(C)(C#Cc1ccc(-c2ccc(Cl)c3c(NS(C)(=O)=O)nn(CC(F)(F)F)c23)c([C@H](Cc2cc(F)cc(F)c2)NC(=O)Cn2nc(C(F)(F)F)c3c2C(F)(F)[C@@H]2C[C@H]32)n1)S(C)(=O)=O` [compound of Formula (Ia)], the Plasma concentration (400 mg/mL solution Y (water, PEG 300), 1.00 h, animals #1-#4) was 22.1 nM and 39.4 nM and 24.1 nM, the Plasma concentration (400 mg/mL solution Y (water, PEG 300), 3.00 h, animals #1-#4) was 39.2 nM and 68.9 nM and 49.5 nM and the Plasma concentration (400 mg/mL solution Y (water, PEG 300), 8.00 h, animals #1-#4) was 66.8 nM and 80.4 nM and 53.7 nM. For the same compound, the Plasma concentration (400 mg/mL solution Y (water, PEG 300), 24.0 h, animals #1-#4) was 110 nM and 116 nM and 74.5 nM, the Plasma concentration (400 mg/mL solution Y (water, PEG 300), 48.0 h, animals #1-#4) was 113 nM and 154 nM and 88.9 nM and the Plasma concentration (400 mg/mL solution Y (water, PEG 300), 72.0 h, animals #1-#4) was 126 nM and 149 nM and 75.4 nM. For the same compound, the Plasma concentration (400 mg/mL solution Z (3.13% poloxamer 188), 168 h, animals #1-#4) was 130 nM and 122 nM and 65.0 nM, the Plasma concentration (400 mg/mL solution Z (3.13% poloxamer 188), 672 h, animals #1-#4) was 155 nM and 136 nM and 235 nM and the Plasma concentration (400 mg/mL solution Z (3.13% poloxamer 188), 1008 h, animals #1-#4) was 136 nM and 139 nM and 244 nM. The Plasma concentration (400 mg/mL solution Z (3.13% poloxamer 188), 1344 h, animals #1-#4) was 110 nM and 220 nM, the Plasma concentration (400 mg/mL solution Z (3.13% poloxamer 188), 1680 h, animals #1-#4) was 115 nM and 116 nM and 169 nM and the Plasma concentration (400 mg/mL solution Z (3.13% poloxamer 188), 2016 h, animals #1-#4) was 137 nM and 93.8 nM and 165 nM. For the same compound, the Plasma concentration (400 mg/mL solution Z (3.13% poloxamer 188), 2352 h, animals #1-#4) was 117 nM and 122 nM and 167 nM, the Plasma concentration (400 mg/mL solution Z (3.13% poloxamer 188), 2688 h, animals #1-#4) was 117 nM and 158 nM and 172 nM and the Plasma concentration (400 mg/mL solution Z (3.13% poloxamer 188), 3024 h, animals #1-#4) was 115 nM and 151 nM and 154 nM. The Plasma concentration (400 mg/mL solution Z (3.13% poloxamer 188), 3360 h, animals #1, #3, #4 (#2 NS)) was 158 nM and 133 nM, the Plasma concentration (400 mg/mL solution Z (3.13% poloxamer 188), 3696 h, animals #1, #3, #4 (#2 NS)) was 163 nM and 150 nM and the Plasma concentration (500 mg/mL solution X (5.00% ethanol, 1.91% poloxamer 188), 3.00 h, animals #1-#3) was 57.8 nM and 86.0 nM. The Plasma concentration (500 mg/mL solution X (5.00% ethanol, 1.91% poloxamer 188), 8.00 h, animals #1-#3) was 75.9 nM and 97.7 nM, the Plasma concentration (500 mg/mL solution X (5.00% ethanol, 1.91% poloxamer 188), 24.0 h, animals #1-#3) was 151 nM and 237 nM and the Plasma concentration (500 mg/mL solution X (5.00% ethanol, 1.91% poloxamer 188), 48.0 h, animals #1-#3) was 165 nM and 254 nM. The Plasma concentration (500 mg/mL solution X (5.00% ethanol, 1.91% poloxamer 188), 72.0 h, animals #1-#3) was 153 nM and 237 nM, the Plasma concentration (500 mg/mL solution X (5.00% ethanol, 1.91% poloxamer 188), 96.0 h, animals #1-#3) was 166 nM and 201 nM and the Plasma concentration (500 mg/mL solution X (5.00% ethanol, 1.91% poloxamer 188), 168 h, animals #1-#3) was 134 nM and 189 nM. The Plasma concentration (500 mg/mL solution X (5.00% ethanol, 1.91% poloxamer 188), 336 h, animals #1-#3) was 185 nM and 246 nM, the Plasma concentration (500 mg/mL solution X (5.00% ethanol, 1.91% poloxamer 188), 504 h, animals #1-#3) was 239 nM and 261 nM and the Plasma concentration (500 mg/mL solution X (5.00% ethanol, 1.91% poloxamer 188), 672 h, animals #1-#3) was 246 nM and 252 nM. For the same compound, the Plasma concentration (500 mg/mL solution X (5.00% ethanol, 1.91% poloxamer 188), 840 h, animals #1-#3) was 282 nM and 239 nM, the Plasma concentration (500 mg/mL solution X (5.00% ethanol, 1.91% poloxamer 188), 1008 h, animals #1-#3) was 312 nM and 183 nM and the Plasma concentration (500 mg/mL solution X (5.00% ethanol, 1.91% poloxamer 188), 1344 h, animals #1-#3) was 321 nM and 182 nM. The Plasma concentration (500 mg/mL solution X (5.00% ethanol, 1.91% poloxamer 188), 1680 h, animals #1-#3) was 310 nM and 224 nM, the Plasma concentration (500 mg/mL solution X (5.00% ethanol, 1.91% poloxamer 188), 2016 h, animals #1-#3) was 248 nM and 169 nM and the Plasma concentration (500 mg/mL solution X (5.00% ethanol, 1.91% poloxamer 188), 2352 h, animals #1-#3) was 222 nM and 141 nM. The Plasma concentration (500 mg/mL solution X (5.00% ethanol, 1.91% poloxamer 188), 2688 h, animals #1-#3) was 205 nM and 157 nM, the Plasma concentration (500 mg/mL solution X (5.00% ethanol, 1.91% poloxamer 188), 3024 h, animals #1-#3) was 187 nM and 168 nM and the Plasma concentration (500 mg/mL solution X (5.00% ethanol, 1.91% poloxamer 188), 3360 h, animals #1-#3) was 171 nM and 178 nM. The Plasma concentration (500 mg/mL solution X (5.00% ethanol, 1.91% poloxamer 188), 3696 h, animals #1-#3) was 138 nM and 144 nM, the Plasma concentration (500 mg/mL solution X (5.00% ethanol, 1.91% poloxamer 188), 4032 h, animals #1-#3) was 132 nM and 175 nM and the Plasma concentration (500 mg/mL solution X (5.00% ethanol, 1.91% poloxamer 188), 4704 h, animals #1-#3) was 68.0 nM and 119 nM.

Source: patent publication US11807625B2, “Capsid inhibitors for the prevention of HIV” (Gilead Sciences, Inc., priority 2019, dated 2023)
